What all share (assay): protein-binding microarray (PBM)
Holding throughout (settings): PBM: ~300 nM protein, 6 mM HEPES pH 7.8, 80 mM KCl, 0.5 mM EDTA, 0.5 mM EGTA, 6% glycerol, 35 ng/ul poly-dIdC, 1% milk, 1 h, room temperature; Ap Aiptasia and Nv Nematostella (sea anemones) / Co Capsaspora / Aq Amphimedon (sponge) / Dm Drosophila / Hu human; RHD is the Rel homology domain; high values mean tight binding; most listed sequences are background and not binding sites; double strand, one strand shown

Assay [1] has as its target T1, GST-Ap-NF-kB RHD (UniProt A0A913YAJ5).
T1 sequence: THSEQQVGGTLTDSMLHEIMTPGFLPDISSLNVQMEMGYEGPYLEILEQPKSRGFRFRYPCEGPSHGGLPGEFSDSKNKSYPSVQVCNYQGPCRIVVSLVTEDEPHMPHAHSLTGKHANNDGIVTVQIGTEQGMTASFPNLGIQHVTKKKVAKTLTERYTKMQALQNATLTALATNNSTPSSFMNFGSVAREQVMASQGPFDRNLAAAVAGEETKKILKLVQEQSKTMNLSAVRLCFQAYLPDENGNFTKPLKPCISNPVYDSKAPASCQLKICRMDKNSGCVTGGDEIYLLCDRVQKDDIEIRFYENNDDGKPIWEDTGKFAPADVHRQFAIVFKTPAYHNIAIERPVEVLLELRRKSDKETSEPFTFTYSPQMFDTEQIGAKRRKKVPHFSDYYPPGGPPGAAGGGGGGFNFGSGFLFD

Assay [2] concerns the target T2, GST-Nv-NF-kB (Cys allele) (UniProt E5G601).
T2 sequence: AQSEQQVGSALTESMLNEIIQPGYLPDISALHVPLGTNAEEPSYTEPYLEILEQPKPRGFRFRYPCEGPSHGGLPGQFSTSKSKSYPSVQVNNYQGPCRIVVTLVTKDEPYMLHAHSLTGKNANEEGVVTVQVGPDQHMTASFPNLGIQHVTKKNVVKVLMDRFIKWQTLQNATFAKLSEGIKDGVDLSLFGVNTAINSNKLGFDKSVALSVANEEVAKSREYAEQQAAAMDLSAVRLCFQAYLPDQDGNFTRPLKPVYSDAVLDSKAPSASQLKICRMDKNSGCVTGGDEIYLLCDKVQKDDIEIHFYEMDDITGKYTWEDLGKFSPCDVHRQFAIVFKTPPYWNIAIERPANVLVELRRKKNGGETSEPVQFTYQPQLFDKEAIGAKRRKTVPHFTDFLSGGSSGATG

Assay [3] has as its target T3, GST-Co-NF-kB (UniProt F1ARL5).
T3 sequence: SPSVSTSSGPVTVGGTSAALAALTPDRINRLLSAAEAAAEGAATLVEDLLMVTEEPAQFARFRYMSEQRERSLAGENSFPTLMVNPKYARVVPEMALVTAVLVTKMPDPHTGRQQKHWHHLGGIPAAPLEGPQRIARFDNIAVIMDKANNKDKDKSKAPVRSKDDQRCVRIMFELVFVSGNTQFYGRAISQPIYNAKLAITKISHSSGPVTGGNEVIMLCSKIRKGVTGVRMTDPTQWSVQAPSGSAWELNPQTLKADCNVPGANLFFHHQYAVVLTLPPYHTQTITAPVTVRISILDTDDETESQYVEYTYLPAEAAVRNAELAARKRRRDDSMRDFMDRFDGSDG

Only a part is listed here, and it is no random draw. The list includes weakly bound sequences.

Turning to “CCGATTAACATCAGGGGGTAACATGATGTTAATCGGGTCTTGATTCGCTTGACGCTGCTG”, the figures for the binding signal in assay [1] and in assay [2] were 4.79 z-score and 3.69 z-score, respectively.

Turning to “CCGATTAACATCAAAAAACCCACTGATGTTAATCGGGTCTTGATTCGCTTGACGCTGCTG”, the binding signal in assay [1] is 2.65 z-score; in assay [2], 2.49 z-score.

“CCGATTAACATCACAAATTCCCCTGATGTTAATCGGGTCTTGATTCGCTTGACGCTGCTG”: the binding signal in assay [1] stood at 9.44 z-score; in assay [2] it was 10.9 z-score.

For the sequence “CCGATTAACATCAGGGGAAGGGATGATGTTAATCGGGTCTTGATTCGCTTGACGCTGCTG”, the binding signal in assay [1] and in assay [2] was 4.77 z-score each time.

Turning to “CCGATTAACATCACTGGGATTTCTGATGTTAATCGGGTCTTGATTCGCTTGACGCTGCTG”, the results for the binding signal in assay [1] and in assay [2] were 2.53 z-score and 1.96 z-score, respectively.

Turning to “CCGATTAACATCAGGGATAACCCTGATGTTAATCGGGTCTTGATTCGCTTGACGCTGCTG”, the results for the binding signal in assay [1] and in assay [2] were 3.63 z-score and 3.77 z-score, respectively.

Take “CCGATTAACATCAGGGAAATAAATGATGTTAATCGGGTCTTGATTCGCTTGACGCTGCTG”: the values for the binding signal in assay [1] and in assay [2] were 2.39 z-score and 4.44 z-score, respectively.

In the case of “CCGATTAACATCACAAAATCCCCTGATGTTAATCGGGTCTTGATTCGCTTGACGCTGCTG”, the binding signal in assay [1] is 9.85 z-score; in assay [2] it was 10.8 z-score.

For the sequence “CCGATTAACATCAAAACTCCCCGTGATGTTAATCGGGTCTTGATTCGCTTGACGCTGCTG”, the values for the binding signal in assay [1] and in assay [2] were 7.7 z-score and 6.47 z-score, respectively.

As to “CCGATTAACATCAGGAAACACCCTGATGTTAATCGGGTCTTGATTCGCTTGACGCTGCTG”, the binding signal in assay [1] came to 3.05 z-score; in assay [2], 2.79 z-score.

On to “CCGATTAACATCAGGGAATTCTATGATGTTAATCGGGTCTTGATTCGCTTGACGCTGCTG”, for which the binding signal in assay [1] came to 5.04 z-score; in assay [2], 6.52 z-score.

Turning to “CCGATTAACATCAGGGAAATCAATGATGTTAATCGGGTCTTGATTCGCTTGACGCTGCTG”, the figures for the binding signal in assay [1] and in assay [2] were 2.16 z-score and 3.6 z-score, respectively.

For the sequence “CCGATTAACATCACGGAAATTTCTGATGTTAATCGGGTCTTGATTCGCTTGACGCTGCTG”, the binding signal in assay [1] turned out to be 0.81 z-score; in assay [2], 1 z-score.

As for “CCGATTAACATCAGGGGCACCCCTGATGTTAATCGGGTCTTGATTCGCTTGACGCTGCTG”, the binding signal in assay [1] worked out at 5.17 z-score; in assay [2], 3.94 z-score.

Consider “CCGATTAACATCATAAGCGGGGATGATGTTAATCGGGTCTTGATTCGCTTGACGCTGCTG”, for which the binding signal was 3.32 z-score in assay [1] and 3.81 z-score in assay [2].

As to “CCGATTAACATCAGGTGTTCCCATGATGTTAATCGGGTCTTGATTCGCTTGACGCTGCTG”, the binding signal in assay [1] is 1.43 z-score; in assay [2], 0.641 z-score.

As for “CCGATTAACATCAGGGGGATCACTGATGTTAATCGGGTCTTGATTCGCTTGACGCTGCTG”, the binding signal worked out at 5.55 z-score in assay [1] and 4.61 z-score in assay [2].

As for “CCGATTAACATCAGAATATCCCATGATGTTAATCGGGTCTTGATTCGCTTGACGCTGCTG”, the binding signal is 2.05 z-score in assay [1] and 1.17 z-score in assay [2].

With “CCGATTAACATCACGTTTTTCCCTGATGTTAATCGGGTCTTGATTCGCTTGACGCTGCTG”, the binding signal in assay [1] was 3.81 z-score; in assay [2], 4.59 z-score.

Consider “CCGATTAACATCAGAATCCCCCCTGATGTTAATCGGGTCTTGATTCGCTTGACGCTGCTG”, for which the figures for the binding signal in assay [1] and in assay [2] were 9.22 z-score and 7.84 z-score, respectively.

As for “CCGATTAACATCAAGGGAATTCCTGATGTTAATCGGGTCTTGATTCGCTTGACGCTGCTG”, the figures for the binding signal in assay [1] and in assay [2] were 7.9 z-score and 8.71 z-score, respectively.

Consider “CCGATTAACATCAGGGGGAGGAATGATGTTAATCGGGTCTTGATTCGCTTGACGCTGCTG”, for which the binding signal was found to be 5.2 z-score in assay [1] and 4.58 z-score in assay [2].

For “CCGATTAACATCACGAGATTCCCTGATGTTAATCGGGTCTTGATTCGCTTGACGCTGCTG”, the binding signal in assay [1] turned out to be 3.03 z-score; in assay [2] it was 3.39 z-score.

Regarding “CCGATTAACATCAACGGATTCCCTGATGTTAATCGGGTCTTGATTCGCTTGACGCTGCTG”, the values for the binding signal in assay [1] and in assay [2] were 2.31 z-score and 3.57 z-score, respectively.

With “CCGATTAACATCAGGAACATCCCTGATGTTAATCGGGTCTTGATTCGCTTGACGCTGCTG”, the binding signal in assay [1] worked out at 1.46 z-score; in assay [2], 1.39 z-score; in assay [3], 0.592 z-score.

Take “CCGATTAACATCACGGAATTTCCTGATGTTAATCGGGTCTTGATTCGCTTGACGCTGCTG”: the binding signal in assay [1] stood at 0.0152 z-score; in assay [2], 0.0768 z-score; in assay [3], 0.284 z-score.

As for “CCGATTAACATCACGGTTTTTCCTGATGTTAATCGGGTCTTGATTCGCTTGACGCTGCTG”, the binding signal in assay [1] is 0.469 z-score; in assay [2] it was 0.599 z-score; in assay [3], -0.0134 z-score.

In the case of “CCGATTAACATCAAGGTATTCCCTGATGTTAATCGGGTCTTGATTCGCTTGACGCTGCTG”, the results for the binding signal in assay [1], in assay [2] and in assay [3] were 4.4 z-score, 3.82 z-score and 3.21 z-score, respectively.

In the case of “CCGATTAACATCACGGCAATTCCTGATGTTAATCGGGTCTTGATTCGCTTGACGCTGCTG”, the values for the binding signal in assay [1], in assay [2] and in assay [3] were -0.134 z-score, -0.659 z-score and 0.166 z-score, respectively.

“CCGATTAACATCAGGAATTCCACTGATGTTAATCGGGTCTTGATTCGCTTGACGCTGCTG”: the binding signal was 0.513 z-score in assay [1], 0.524 z-score in assay [2] and -0.0139 z-score in assay [3].

For the sequence “CCGATTAACATCAATATTTCCCCTGATGTTAATCGGGTCTTGATTCGCTTGACGCTGCTG”, the values for the binding signal in assay [1], in assay [2] and in assay [3] were 8.09 z-score, 10.1 z-score and 10.7 z-score, respectively.

Turning to “CCGATTAACATCAAGGGGAATCCTGATGTTAATCGGGTCTTGATTCGCTTGACGCTGCTG”, the binding signal is 9.67 z-score in assay [1], 11 z-score in assay [2] and 5.17 z-score in assay [3].

For the sequence “CCGATTAACATCAAAATTCCCCGTGATGTTAATCGGGTCTTGATTCGCTTGACGCTGCTG”, the binding signal was 9.41 z-score in assay [1], 11.3 z-score in assay [2] and 10.6 z-score in assay [3].

(Values after PMC5700166.)
